In PubChem BioAssay AID1508623 (National Center for Advancing Translational Sciences (NCATS), 2021):
Screen size: about 48,000 compounds; about 450 (0.94%) were called active. Roughly 19% stayed inconclusive and do not appear here. Calls follow the shape of the dose curve; as a rule, active = well fitted inhibition curve with a large enough effect; inconclusive = small, poorly fitted or top-dose-only effect; inactive = no such curve, though single readings can be large or run the other way. The list shows a part of the results.

test: Primary qHTS for Identification of Small Molecule Inhibitors of Huntingtin Promoter Activity; details: HEK293 HTT promoter firefly luciferase reporter (activity 0% = vehicle and -100% = no light), 24 h; series mostly up to 57.5 µM; activity change, negative = inhibition: at the top concentration; also: nearly all actives have a fitted effect of over 50% in size
Summary of the method: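 Firefly luciferase readout (Dual-Glo, 10 min RT) after 24 h, 37 °C compound exposure (final up to 57.5 uM) of HEK293 reporter cells cultured 24 h beforehand; PTC124 at 50 uM final as control inhibitor; activity scaled vehicle 0%, zero RLU -100%.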
Potency is read from the fitted curve at half-maximal effect.

Compound | activity change, negative = inhibition | Potency
CCS(=O)(=O)c1nc(S(=O)(=O)c2ccc(Cl)cc2)c(NCc2ccccc2Cl)s1 | inactive: -17.3% | 
COC(=O)C1=C(C)NC(C)=C(C(=O)OCCN2CCN(C(c3ccccc3)c3ccccc3)CC2)C1c1cccc([N+](=O)[O-])c1 (stereo unspecified) | inactive: -6.18% | 
O=c1c(N2CCc3ccccc3C2)csc2ccccc12 | inactive: 12.9% | 
O=C(NCCc1ccccc1)c1ccc2c(c1)N(Cc1ccccc1F)C(=O)c1ccccc1S2=O (stereo unspecified) | inactive: 11.1% | 
Cc1ccc(-c2ccc(=O)n(CC(=O)Nc3cccc(C#N)c3)n2)cc1 | inactive: -6.08% | 
CCOc1ccc(-c2nc3c(c(SCC(=O)N4CCCCC4)n2)Cc2ccccc2O3)cc1 | inactive: -8.48% | 
CNC(=O)C1CCC(Cn2c(=O)c3sccc3n(CC(=O)NCc3ccc(F)cc3)c2=O)CC1 (stereo unspecified) | inactive: -15.5% | 
COc1ccc(NC(=O)c2ccc3c(=O)n4nc(Nc5cccc(Cl)c5C)sc4nc3c2)cc1 | inactive: -1.17% | 
CC1=C(C(=O)Nc2cccnc2)C(c2ccccc2)n2nc(-c3ccc(O)cc3)nc2N1 (stereo unspecified) | inactive: 4.1% | 
Cc1ccc(C2CCN(C(=O)c3cnn(-c4ccc(C)cc4)c3C3CCN(C(=O)OC(C)(C)C)CC3)C2)cc1 (stereo unspecified) | inactive: 25.3% | 
CCCCCCCCCCCCCCCCN | inactive: -1.57% | 
COc1cccc(NC(=O)CC(C)S(=O)(=O)c2ccc3c(c2)NC(=O)CO3)c1 (stereo unspecified) | inactive: 5.09% | 
Cc1c(Cl)cccc1NC(=O)c1ncn(-c2ccccc2)n1 | inactive: 40.6% | 
COc1ccc(CCNC(=O)CSc2nc(-c3ccc(F)cc3)cc(C(F)(F)F)n2)cc1OC | inactive: -11.3% | 
Cc1cccc(C(=O)Nc2nnc(S(=O)(=O)N(C)Cc3ccco3)s2)c1 | inactive: 0.912% | 
CCCN1C[C@H](CSC)C[C@@H]2c3cccc4[nH]cc(c34)C[C@H]21 | inactive: -8.01% | 
Cc1ccc(NS(=O)(=O)c2ccc3c(c2)CCCN3C(=O)C2CCC2)cc1Cl |  | active: 22.4 µM
CCOC(=O)C(=O)CCCCCCl | inactive: -3.13% | 
COCCNc1nc2c(S(=O)(=O)c3ccc(C)c(C)c3)nnn2c2ccc(Cl)cc12 | inactive: 2.57% | 
COc1cc(OC)cc(C(=O)Nc2ccc(S(=O)(=O)Nc3ncccn3)cc2)c1 | inactive: -5.98% | 
O=C(NCc1ccc2c(c1)CCN2C(=O)c1ccc(Cl)cc1)c1cccc(F)c1 | inactive: -9.51% | 

Compound | activity change, negative = inhibition | Potency
Cc1ccc(NC(=O)CCS(=O)(=O)c2cc3c4c(c2)CCN4C(=O)CC3)c(C)c1 | inactive: -11.2% | 
O=C(Nc1nnc(S(=O)(=O)Nc2ccccc2)s1)c1ccccc1Cl | inactive: -10.4% | 
CCc1noc(-c2ccc(N3CCCCC3C)c([N+](=O)[O-])c2)n1 (stereo unspecified) | inactive: 44.8% | 
CC(=O)Nc1ccccc1 | inactive: 2.86% | 
CCC(Oc1ccccc1)C(=O)Nc1cc(-c2ccccc2OC)nn1-c1ccccc1 (stereo unspecified) | inactive: -29.1% | 
Cc1ccc(-c2nc3c(c(SCC(=O)Nc4ccccc4Cl)n2)Cc2c(CO)cnc(C)c2O3)cc1 | inactive: -14.9% | 
CCOC(=O)c1c(S(=O)(=O)NCC(=O)NCc2cccc(C)c2)c(C)n(C)c1C | inactive: -1.6% | 
O=C(COc1ccccc1)Nc1nnc(S(=O)(=O)N2CCCC2)s1 | inactive: -5.22% | 
O=C(OCC1CCCO1)c1ccc2c(c1)N(Cc1ccccc1Cl)C(=O)c1ccccc1S2(=O)=O (stereo unspecified) | inactive: -2.82% | 
CCOc1ccc(-n2c(=O)c3c4c(sc3n(CC(=O)Nc3cccc(C(F)(F)F)c3)c2=O)CCCCC4)cc1 | inactive: -14.7% | 
COc1ccccc1NC(=O)C(Cc1ccccc1)NS(=O)(=O)c1ccc2c(c1)c(=O)n(C)c(=O)n2C (stereo unspecified) | inactive: -5.1% | 
Cc1cc(Nc2cccc(C(F)(F)F)c2)nc2ccc(NC(=O)c3ccc(=O)[nH]c3)cc12 | inactive: -22.6% | 
O=C(NCc1ccc(F)cc1)c1c(O)nc2ccccn2c1=O | inactive: 0.0293% | 
CCCCOc1cccc(NC(=O)CSc2nnc(C)s2)c1 | inactive: -13.2% | 
COc1ccc(OC)c(NC(=O)CSc2nc3ccccc3nc2N2CCCCC2)c1 | inactive: -30% | 
CCCC(=O)OCc1cnc(C)c2oc(=O)c(C(=O)Nc3ccccc3)cc12 | inactive: -3.53% | 
COc1ccc(NC(=O)C2CCC(CNS(=O)(=O)c3ccc(Br)s3)CC2)cc1OC (stereo unspecified) | inactive: -11.1% | 
CC(NC(=O)CCNS(=O)(=O)c1cccc2nsnc12)c1ccccc1 (stereo unspecified) | inactive: -2.73% | 
Cc1ccc2c(=O)cc(CSCC(=O)Nc3nnc(C)s3)[nH]c2c1 | inactive: 8.1% | 
O=C(Nc1cccc(Cl)c1)c1cnc[nH]1 | inactive: 62.4% | 
COc1cccc(C(c2c(O)cc(C)n(Cc3ccco3)c2=O)N2CCN(c3ccccc3)CC2)c1 (stereo unspecified) | inactive: -33.9% | 

Compound | activity change, negative = inhibition | Potency
O=C(CSc1nccn1Cc1ccc(Cl)cc1)Nc1ccc2c(c1)OCCO2 | inactive: -15.5% | 
Cc1cc(C)n(C(C)CC(=O)NCc2ccc(N(C)C)cc2)n1 (stereo unspecified) | inactive: -8.18% | 
COC(=O)c1cc2sccc2n1Cc1nc(-c2ccc(Cl)cc2)oc1C | inactive: -11.2% | 
CCc1ccccc1NC(=O)c1ccc2c(c1)N(Cc1cc(C)ccc1C)C(=O)c1ccccc1S2(=O)=O | inactive: -11.7% | 
C[N+]1(C)[C@@H]2C[C@@H](OC(=O)C(O)(c3cccs3)c3cccs3)C[C@H]1[C@@H]1O[C@@H]12 | inactive: 0.264% | 
COc1ccc(CNC(=O)C(C)n2ccc3cc(S(=O)(=O)N4CCCC4)ccc32)cc1OC (stereo unspecified) | inactive: -20.7% | 
COc1ccccc1NC(=O)C1=C(C)Nc2nc(SCc3ccccc3C)nn2C1CC(C)C (stereo unspecified) | inactive: -4.24% | 
COc1ccc(-n2ncc(C(=O)N3CCc4ccccc4C3)c2C2CCN(C(=O)OC(C)(C)C)CC2)cc1 | inactive: 7.28% | 
CCc1ccc2oc(C(=O)Nc3nonc3CC)c(C)c2c1 | inactive: 34.4% | 
CC(C(=O)O)c1ccc2c(c1)Cc1cccnc1O2 (stereo unspecified) | inactive: 8.13% | 
Cc1oc2ncn(C)c(=O)c2c1C(=O)NCCCN1CCCC(C)C1 (stereo unspecified) | inactive: 0% | 
C[C@H]1COc2c(C3(N)CC3)c(F)cc3c(=O)c(C(=O)O)cn1c23 | inactive: 2.24% | 
O=C(Nc1ccc(Br)cc1F)c1ncoc1-c1ccco1 | inactive: 11.5% | 
COC(=O)[C@@H]1CC2=CC(=O)CC[C@]2(C)[C@@]23O[C@@H]2C[C@@]2(C)[C@H](CC[C@@]24CCC(=O)O4)[C@@H]13 | inactive: 9.06% | 
O=C(COc1ccccc1)N(Cc1cccnc1)c1nc2ccc(F)cc2s1 | inactive: 22.7% | 
CCOc1cc(-c2nc(-c3ccc(Br)cc3)no2)cc(OCC)c1OCC | inactive: 6.51% | 
COc1ccc(-c2cc(C(F)(F)F)n3nc(C(=O)NCC45CC6CC(CC(C6)C4)C5)cc3n2)cc1 | inactive: -5.28% | 
O=C(CN1C(=O)COc2ccc(S(=O)(=O)N3CCOCC3)cc21)N1CCN(c2ccccc2)CC1 | inactive: -0.285% | 
COCCCNC(=O)c1ccc2c(=O)n(Cc3ccc(OC)cc3)c(=O)[nH]c2c1 | inactive: -2.59% | 
